# Reference: US7592316B2, “Peptides as NS3-serine protease inhibitors of hepatitis C virus” (Schering Corporation, priority 2000, dated 2009)
# pKi: −log10 of the molar value. *1 amine or outer side, *2 acyl side, *3 side chain or, on linkers, in order; H or OH if unused. Where a SMILES comes first, the peptide text is derived from it. [ ]: non-standard residue; d: D form. The star is where a group is joined. ξ: configuration not given here. Phenylacetyl(3-CH2COOH) = O=C(O)Cc1cccc(CC(=O)*)c1; Pro(4,4-S(CH2)3S) = O=C(O)[C@@H]1CC2(CN1)SCCCS2; Benzoyl(2-COOH) = O=C(O)c1ccccc1C(=O)*; Pro(4,4-F2) = O=C(O)[C@@H]1CC(F)(F)CN1; X25 = O=C(O)c1c(F)c(F)c(F)c(F)c1C(=O)*; Isobutyloxycarbonyl = CC(C)COC(=O)*; X94 = O=C(O)[C@@H]1CCCC[C@H]1C(=O)*; X4 = CCCCC(N[*:1])C(=O)C(=O)[*:2]; Hyp = O=C(O)[C@@H]1C[C@@H](O)CN1; X2 = CCCC(N[*:1])C(=O)C(=O)[*:2]; X38 = CC(C)(C)C(Cc1ccccc1)C(=O)*; Aad = N[C@@H](CCCC(=O)O)C(=O)O; Chg = N[C@H](C(=O)O)C1CCCCC1; Phg = N[C@H](C(=O)O)c1ccccc1; Tle = CC(C)(C)[C@H](N)C(=O)O; ξhPhe = NC(CCc1ccccc1)C(=O)O; X10 = CC(C)(C(=O)*)c1ccccc1; ξChg = NC(C(=O)O)C1CCCCC1; ξPhg = NC(C(=O)O)c1ccccc1; Boc = CC(C)(C)OC(=O)*; ξNle = CCCCC(N)C(=O)O; ξV = CC(C)C(N)C(=O)O; ξP = O=C(O)C1CCCN1; Bn = c1ccc(C*)cc1; OtBu = CC(C)(C)O*; tBu = CC(C)(C)*
# Target: HCV NS3/NS4A protease (strain 1a) (Hepatitis C virus genotype 1a, UniProt P27958)
# Test: biochemical
# Conditions: Compounds prepared by Solid Phase Synthesis, Table 3; read-out: Ki* CLASS
# Procedure: Assay for HCV Protease Inhibitory Activity:
# Spectrophotometric Assay Spectrophotometric assay for the HCV serine protease was performed on the inventive compounds by following the procedure described by R. Zhang et al, Analytical Biochemistry, 270 (1999) 268-275, the disclosure of which is incorporated herein by reference. The assay based on the proteolysis of chromogenic ester substrates is suitable for the continuous monitoring of HCV NS3 protease activity. The substrates were derived from the P side of the NS5A-NS5B junction sequence (Ac-DTEDWX(Nva), where X=A or chromophoric alcohols (3- or 4-nitrophenol, 7-hydroxy-4-methyl-coumarin, or 4-phenylazophenol). Presented below are the synthesis, characterization and application of these novel spectrophotometric ester substrates to high throughput screening and detailed kinetic evaluation of HCV NS3 protease inhibitors.
# Protein concentrations were determined by the Biorad dye method using recombinant HCV protease standards previously quantified by amino acid analysis. Prior to assay initiation, the enzyme storage buffer (50 mM sodium phosphate pH 8.0, 300 mM NaCl, 10% glycerol, 0.05% lauryl maltoside and 10 mM DTT) was exchanged for the assay buffer (25 mM MOPS pH 6.5, 300 mM NaCl, 10% glycerol, 0.05% lauryl maltoside, 5 μM EDTA and 5 μM DTT) utilizing a Biorad Bio-Spin P-6 prepacked column.
# Protease Assay: HCV protease assays were performed at 30° C. using a 200 μl reaction mix in a 96-well microtiter plate. Assay buffer conditions (25 mM MOPS pH 6.5, 300 mM NaCl, 10% glycerol, 0.05% lauryl maltoside, 5 μM EDTA and 5 μM DTT) were optimized for the NS3/NS4A heterodimer (D. L. SalI et al, ibid.)). […] Fifty μls of prewarmed protease (12 nM, 30° C.) in assay buffer, was then used to initiate the reaction (final volume 200 μl). The plates were monitored over the length of the assay (60 minutes) for change in absorbance at the appropriate wavelength (340 nm for 3-Np and HMC, 370 nm for PAP, and 400 nm for 4-Np) using a Spectromax Plus microtiter plate reader equipped with a monochrometer (acceptable results can be obtained with plate readers that utilize cutoff filters). Proteolytic cleavage of the ester linkage between the Nva and the chromophore was monitored at the appropriate wavelength against a no enzyme blank as a control for non-enzymatic hydrolysis. The evaluation of substrate kinetic parameters was performed over a 30-fold substrate concentration range (˜6-200 μM). Initial velocities were determined using linear regression and kinetic constants were obtained by fitting the data to the Michaelis-Menten equation using non-linear regression analysis (Mac Curve Fit 1.1, K. Raner). Turnover numbers (kcat) were calculated assuming the enzyme was fully active.
# The resulting data were fitted using linear regression and the resulting slope, 1/(Ki*(1+[S] o/Km), was used to calculate the Ki* value.
row,Structure (SMILES),pKi
1,CCCC(NC(=O)[C@@H]1C[C@@H](OCc2ccccc2)CN1C(=O)C(NC(=O)OCC(C)C)C(C)C)C(=O)C(=O)NCC(=O)NC(CCc1ccccc1)C(N)=O (stereo partly drawn) (Isobutyloxycarbonyl-[ξV][Hyp](Bn)[X2]G[ξhPhe]-NH2),< 6.00
2,CCCCC(NC(=O)[C@@H]1C[C@@H](OCc2ccccc2)CN1C(=O)C(NC(=O)[C@@H]1CCCC[C@H]1C(=O)O)C1CCCCC1)C(=O)C(=O)NCC(=O)NC(C(N)=O)c1ccccc1 (stereo partly drawn) (X94-[ξChg][Hyp](Bn)[X4]G[ξPhg]-NH2),6.00 to 7.00
3,CCCC(NC(=O)[C@@H]1C[C@@H](OC(C)(C)C)CN1C(=O)[C@@H](NC(=O)OCC(C)C)C1CCCCC1)C(=O)C(=O)NCC(=O)NC(C(N)=O)c1cc(C)cc(C)c1 (stereo partly drawn),6.00 to 7.00
4,CCCC(NC(=O)[C@@H]1C[C@@H](OCc2ccccc2)CN1C(=O)[C@H](CCCC(=O)OC(C)(C)C)NC(=O)c1c(F)c(F)c(F)c(F)c1C(=O)O)C(=O)C(=O)NCC(=O)N[C@H](C(N)=O)c1ccccc1 (stereo partly drawn) (X25-[Aad](OtBu)[Hyp](Bn)[X2]G[Phg]-NH2),6.00 to 7.00
5,CCCCC(NC(=O)C1CCCN1C(=O)[C@@H](NC(=O)OC(C)(C)C)C1CCCCC1)C(=O)C(=O)N[C@@H](C)C(=O)N[C@H](C(N)=O)C1CCCCC1 (stereo partly drawn) (Boc-[Chg][ξP][X4]A[Chg]-NH2),< 6.00
6,CCCC(NC(=O)[C@@H]1C[C@@H](OC(C)(C)C)CN1C(=O)[C@@H](NC(=O)Cc1cccc(CC(=O)O)c1)C1CCCCC1)C(=O)C(=O)NCC(=O)N[C@H](C(N)=O)c1ccccc1 (stereo partly drawn) ({Phenylacetyl(3-CH2COOH)}-[Chg][Hyp](tBu)[X2]G[Phg]-NH2),< 6.00
7,CCCCC(NC(=O)CNC(=O)C(=O)C(CCC)NC(=O)[C@@H]1C[C@@H](OCc2ccccc2)CN1C(=O)C(NC(=O)C(Cc1ccccc1)C(C)(C)C)C1CCCCC1)C(N)=O (stereo partly drawn) (X38-[ξChg][Hyp](Bn)[X2]G[ξNle]-NH2),< 6.00
8,CCCC(NC(=O)[C@@H]1C[C@@H](OC(C)(C)C)CN1C(=O)[C@@H](NC(=O)c1ccccc1C(=O)O)C(C)(C)C)C(=O)C(=O)NCC(=O)N[C@H](C(N)=O)c1ccccc1 (stereo partly drawn) ({Benzoyl(2-COOH)}-[Tle][Hyp](tBu)[X2]G[Phg]-NH2),6.00 to 7.00

# Same assay, conditions: HCV protease continuous assay results, Table 1; read-out: Ki* Range
row,Structure (SMILES),pKi
1,CCCC(NC(=O)[C@@H]1C[C@@H](OCc2ccccc2)CN1C(=O)[C@@H](NC(=O)CC1CCCC1)C1CCCCC1)C(=O)C(=O)NCCCC(C(N)=O)c1ccccc1 (stereo partly drawn) [Example 96],< 6.00
2,CCCC(NC(=O)[C@@H]1CC2(CN1C(=O)C(NC(=O)OC(C)(C)C)C(C)(C)C)SCCCS2)C(=O)C(=O)NCC(=O)NC(CO)C(C)C (stereo partly drawn) [Example 243],< 6.00
3,"CCCC(NC(=O)[C@@H]1CC(F)(F)CN1C(=O)[C@@H](NC(=O)OCC(C)C)C1CCCCC1)C(=O)C(=O)NCC(=O)N[C@H](C(=O)O)c1ccccc1 (stereo partly drawn) [Example 202] (Isobutyloxycarbonyl-[Chg][Pro(4,4-F2)][X2]G[Phg]-OH)",7.00 to 9.00
4,CCCC(NC(=O)[C@@H]1C[C@@H](O)CN1C(=O)[C@@H](NC(=O)OCC(C)C)C1CCCCC1)C(=O)C(=O)NCC(=O)N[C@H](C(=O)N(C)C)c1ccccc1 (stereo partly drawn) [Example 207] (Isobutyloxycarbonyl-[Chg][Hyp][X2]G[Phg]-NMe2),6.00 to 7.00
5,"CCCCC(NC(=O)[C@@H]1CC(F)(F)CN1C(=O)[C@@H](NC(=O)OC(C)(C)C)C(C)(C)C)C(=O)C(=O)NCC(=O)N[C@H](C(=O)N(C)C)c1ccccc1 (stereo partly drawn) [Example 236] (Boc-[Tle][Pro(4,4-F2)][X4]G[Phg]-NMe2)",6.00 to 7.00
6,"CCCC(NC(=O)[C@@H]1CC2(CN1C(=O)[C@@H](NC(=O)C(C)(C)c1ccccc1)C(C)(C)C)SCCCS2)C(=O)C(=O)NCC(=O)NC(C(=O)N(C)C)c1ccccc1 (stereo partly drawn) [Example 189] (X10-[Tle][Pro(4,4-S(CH2)3S)][X2]G[ξPhg]-NMe2)",6.00 to 7.00
7,CCCC(NC(=O)C1C[C@@H](SC(C)(C)C)CN1C(=O)C(NC(=O)OCC(C)C)C1CCCCC1)C(=O)C(=O)NCC(=O)NC(C(=O)O)c1ccccc1 (stereo partly drawn) [Example 162],7.00 to 9.00

# Same assay, conditions: Table 4; HCV NS3/NS4A protease, spectrophotometric assay, 30° C., pH 6.5; read-out: Ki* Range
row,Structure (SMILES),pKi
1,CCCC(NC(=O)[C@@H]1C[C@@H](CNC(=O)c2cccc(Oc3ccccc3)c2)CN1C(=O)[C@@H](NC(=O)OCC(C)C)C1CCCCC1)C(=O)C(=O)NCC(=O)N[C@H](C(N)=O)c1ccccc1 (stereo partly drawn),6.00 to 7.00

# Same assay, conditions: Table 5; HCV NS3/NS4A protease, 30° C., pH 6.5; read-out: Ki* Range
row,pKi,Structure (SMILES)
1,7.00 to 9.00,C=CCCC(NC(=O)[C@@H]1[C@H]2[C@@H](CN1C(=O)C(NC(=O)NC(C)(C)C)C1CCCCC1)C2(Cl)Cl)C(=O)C(=O)NCC=C (stereo partly drawn)
2,< 6.00,CCCC(NC(=O)[C@@H]1C2C(CN1C(=O)C(NC(=O)OC(C)(C)C)C1CCCCC1)C2(C)C)C(=O)C(=O)NCC(=O)NC(C)(C)C (stereo partly drawn)
